{
  "source": "the supplement of paper PMC8728848",
  "binders": {"B1": {"name": "ArathEULS3 (Arabidopsis thaliana), Q945P1 (protein)", "chain": "MEHHHQHHRHHQRDDGEDDRQSFGVPPPHVDAPPQPHGLYQSQPHFDPYAPTPQAPAPYRSETQFEPHAPPPYRSEPYFETPAPPPSFGHVSHVGHQSPNESYPPEHHRYGGYQQPSNSLLESHGDHSGVTHVAHHSSNQPQSSSGVYHKPDENRLPDNLAGLAGRATVKVYSKAEPNYNLTIRDGKVILAPADPSDEAQHWYKDEKYSTKVKDADGHPCFALVNKATGEAMKHSVGATHPVHLIRYVPDKLDESVLWTESKDFGDGYRTIRMVNNTRLNVDAYHGDSKSGGVRDGTTIVLWDWNKGDNQLWKIFPFILEQKLISEEDLNSAVDHHHHHH"}},
  "assay_in_all_cases": "glycan array binding signal (z-score within array); higher = stronger binding",
  "details_in_all_cases": "glycan notation: IUPAC condensed, linker removed",
  "key": {"[1]": {"target": "Kdn(a2-3)Gal(b1-4)GlcNAc", "method_in_brief": "(§1)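 Glycan array binding is given as a within-array Z-score, which can be read as non-binding when negative. The arrays, 3228 of them, came from the Consortium for Functional Glycomics database and were retained only where the protein sequence was available. Z-scores were averaged across arrays of the same protein sequence at different concentrations or buffers and across linkers.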"}, "[2]": {"target": "Kdn(a2-3)Gal(b1-4)[Fuc(a1-3)]GlcNAc", "method_in_brief": "as §1"}, "[3]": {"target": "Kdn(a2-6)Gal(b1-4)GlcNAc", "method_in_brief": "as §1"}, "[4]": {"target": "Man(a1-2)Man(a1-2)Man(a1-3)Man", "method_in_brief": "as §1"}, "[5]": {"target": "Man(a1-2)Man(a1-2)Man(a1-6)[Man(a1-3)]Man", "method_in_brief": "as §1"}, "[6]": {"target": "Man(a1-2)Man(a1-3)Man", "method_in_brief": "as §1"}, "[7]": {"target": "Man(a1-2)Man(a1-3)[Man(a1-2)Man(a1-6)]Man", "method_in_brief": "as §1"}, "[8]": {"target": "Man(a1-2)Man(a1-3)[Man(a1-2)Man(a1-6)]Man(a1-6)[Man(a1-2)Man(a1-2)Man(a1-3)]Man", "method_in_brief": "as §1"}, "[9]": {"target": "Man(a1-2)Man(a1-3)[Man(a1-2)Man(a1-6)]Man(a1-6)[Man(a1-2)Man(a1-2)Man(a1-3)]Man(b1-4)GlcNAc(b1-4)GlcNAc", "method_in_brief": "as §1"}, "[10]": {"target": "Man(a1-2)Man(a1-3)[Man(a1-6)]Man(a1-6)[Man(a1-2)Man(a1-3)]Man(b1-4)GlcNAc(b1-4)GlcNAc", "method_in_brief": "as §1"}, "[11]": {"target": "Man(a1-2)Man(a1-6)[Man(a1-3)]Man(a1-6)[Man(a1-2)Man(a1-2)Man(a1-3)]Man", "method_in_brief": "as §1"}, "[12]": {"target": "Man(a1-2)Man(a1-6)[Man(a1-3)]Man(a1-6)[Man(a1-2)Man(a1-2)Man(a1-3)]Man(b1-4)GlcNAc(b1-4)GlcNAc", "method_in_brief": "as §1"}, "[13]": {"target": "Man(a1-3)[Man(a1-6)]Man", "method_in_brief": "as §1"}, "[14]": {"target": "Man(a1-3)[Man(a1-6)]Man(a1-6)[Man(a1-2)Man(a1-3)]Man(b1-4)GlcNAc(b1-4)GlcNAc", "method_in_brief": "as §1"}, "[15]": {"target": "Man(a1-3)[Man(a1-6)]Man(a1-6)[Man(a1-3)]Man", "method_in_brief": "as §1"}, "[16]": {"target": "Man(a1-3)[Man(a1-6)]Man(a1-6)[Man(a1-3)]Man(b1-4)GlcNAc(b1-4)GlcNAc", "method_in_brief": "as §1"}, "[17]": {"target": "Man(a1-3)[Man(a1-6)]Man(b1-4)GlcNAc(b1-4)GlcNAc", "method_in_brief": "as §1"}, "[18]": {"target": "Man(a1-3)[Man(a1-6)]Man(b1-4)GlcNAc(b1-4)[Fuc(a1-6)]GlcNAc", "method_in_brief": "as §1"}, "[19]": {"target": "Man(a1-6)Man", "method_in_brief": "as §1"}, "[20]": {"target": "Man(b1-4)GlcNAc", "method_in_brief": "as §1"}, "[21]": {"target": "Neu5Ac(a2-3)Gal", "method_in_brief": "as §1"}, "[22]": {"target": "Neu5Ac(a2-3)Gal(b1-3)GalNAc", "method_in_brief": "as §1"}, "[23]": {"target": "Neu5Ac(a2-3)Gal(b1-3)GalNAc(b1-3)Gal(a1-4)Gal(b1-4)Glc", "method_in_brief": "as §1"}, "[24]": {"target": "Neu5Ac(a2-3)Gal(b1-3)GalNAc(b1-4)[Neu5Ac(a2-3)]Gal(b1-4)Glc", "method_in_brief": "as §1"}, "[25]": {"target": "Neu5Ac(a2-3)Gal(b1-3)GalNAc(b1-4)[Neu5Ac(a2-8)Neu5Ac(a2-3)]Gal(b1-4)Glc", "method_in_brief": "as §1"}, "[26]": {"target": "Neu5Ac(a2-3)Gal(b1-3)GalNAc6S", "method_in_brief": "as §1"}, "[27]": {"target": "Neu5Ac(a2-3)Gal(b1-3)GlcNAc", "method_in_brief": "as §1"}, "[28]": {"target": "Neu5Ac(a2-3)Gal(b1-3)GlcNAc(b1-2)Man(a1-3)[GlcNAc(b1-4)][Neu5Ac(a2-3)Gal(b1-3)GlcNAc(b1-2)Man(a1-6)]Man(b1-4)GlcNAc(b1-4)GlcNAc", "method_in_brief": "as §1"}, "[29]": {"target": "Neu5Ac(a2-3)Gal(b1-3)GlcNAc(b1-3)Gal(b1-3)GlcNAc", "method_in_brief": "as §1"}, "[30]": {"target": "Neu5Ac(a2-3)Gal(b1-3)GlcNAc(b1-3)Gal(b1-4)GlcNAc", "method_in_brief": "as §1"}, "[31]": {"target": "Neu5Ac(a2-3)Gal(b1-3)GlcNAc(b1-3)GalNAc", "method_in_brief": "as §1"}, "[32]": {"target": "Neu5Ac(a2-3)Gal(b1-3)GlcNAc(b1-6)GalNAc", "method_in_brief": "as §1"}, "[33]": {"target": "Neu5Ac(a2-3)Gal(b1-3)GlcNAc6S", "method_in_brief": "as §1"}, "[34]": {"target": "Neu5Ac(a2-3)Gal(b1-3)[Fuc(a1-4)]GlcNAc", "method_in_brief": "as §1"}, "[35]": {"target": "Neu5Ac(a2-3)Gal(b1-3)[Fuc(a1-4)]GlcNAc(b1-3)Gal(b1-3)[Fuc(a1-4)]GlcNAc", "method_in_brief": "as §1"}, "[36]": {"target": "Neu5Ac(a2-3)Gal(b1-3)[Fuc(a1-4)]GlcNAc(b1-3)Gal(b1-4)[Fuc(a1-3)]GlcNAc", "method_in_brief": "as §1"}, "[37]": {"target": "Neu5Ac(a2-3)Gal(b1-3)[Neu5Ac(a2-3)Gal(b1-4)]GlcNAc", "method_in_brief": "as §1"}, "[38]": {"target": "Neu5Ac(a2-3)Gal(b1-3)[Neu5Ac(a2-6)]GalNAc", "method_in_brief": "as §1"}},
  "note": "The list shows a part of the results.",
  "data": [
    {"binder": "B1", "values": [
      {"measurement": "glycan array binding signal (z-score)", "setting": "[1]", "result": -0.165},
      {"measurement": "glycan array binding signal (z-score)", "setting": "[2]", "result": -0.175},
      {"measurement": "glycan array binding signal (z-score)", "setting": "[3]", "result": -0.168},
      {"measurement": "glycan array binding signal (z-score)", "setting": "[4]", "result": -0.223},
      {"measurement": "glycan array binding signal (z-score)", "setting": "[5]", "result": -0.312},
      {"measurement": "glycan array binding signal (z-score)", "setting": "[6]", "result": -0.279},
      {"measurement": "glycan array binding signal (z-score)", "setting": "[7]", "result": -0.048},
      {"measurement": "glycan array binding signal (z-score)", "setting": "[8]", "result": 0.363},
      {"measurement": "glycan array binding signal (z-score)", "setting": "[9]", "result": -0.229},
      {"measurement": "glycan array binding signal (z-score)", "setting": "[10]", "result": -0.205},
      {"measurement": "glycan array binding signal (z-score)", "setting": "[11]", "result": 0.126},
      {"measurement": "glycan array binding signal (z-score)", "setting": "[12]", "result": -0.159},
      {"measurement": "glycan array binding signal (z-score)", "setting": "[13]", "result": -0.26},
      {"measurement": "glycan array binding signal (z-score)", "setting": "[14]", "result": -0.147},
      {"measurement": "glycan array binding signal (z-score)", "setting": "[15]", "result": -0.266},
      {"measurement": "glycan array binding signal (z-score)", "setting": "[16]", "result": -0.223},
      {"measurement": "glycan array binding signal (z-score)", "setting": "[17]", "result": -0.078},
      {"measurement": "glycan array binding signal (z-score)", "setting": "[18]", "result": 0.401},
      {"measurement": "glycan array binding signal (z-score)", "setting": "[19]", "result": -0.048},
      {"measurement": "glycan array binding signal (z-score)", "setting": "[20]", "result": -0.352},
      {"measurement": "glycan array binding signal (z-score)", "setting": "[21]", "result": -0.328},
      {"measurement": "glycan array binding signal (z-score)", "setting": "[22]", "result": -0.147},
      {"measurement": "glycan array binding signal (z-score)", "setting": "[23]", "result": -0.261},
      {"measurement": "glycan array binding signal (z-score)", "setting": "[24]", "result": -0.323},
      {"measurement": "glycan array binding signal (z-score)", "setting": "[25]", "result": -0.117},
      {"measurement": "glycan array binding signal (z-score)", "setting": "[26]", "result": -0.154},
      {"measurement": "glycan array binding signal (z-score)", "setting": "[27]", "result": -0.07},
      {"measurement": "glycan array binding signal (z-score)", "setting": "[28]", "result": 0.194},
      {"measurement": "glycan array binding signal (z-score)", "setting": "[29]", "result": -0.394},
      {"measurement": "glycan array binding signal (z-score)", "setting": "[30]", "result": -0.22},
      {"measurement": "glycan array binding signal (z-score)", "setting": "[31]", "result": -0.259},
      {"measurement": "glycan array binding signal (z-score)", "setting": "[32]", "result": -0.265},
      {"measurement": "glycan array binding signal (z-score)", "setting": "[33]", "result": -0.212},
      {"measurement": "glycan array binding signal (z-score)", "setting": "[34]", "result": -0.211},
      {"measurement": "glycan array binding signal (z-score)", "setting": "[35]", "result": -0.244},
      {"measurement": "glycan array binding signal (z-score)", "setting": "[36]", "result": -0.301},
      {"measurement": "glycan array binding signal (z-score)", "setting": "[37]", "result": -0.189},
      {"measurement": "glycan array binding signal (z-score)", "setting": "[38]", "result": 0.357}
    ]}
  ]
}
